In the RNAGym collection of RNA variant scans (doi:10.1073/pnas.2313332121):
Variants at the floor of the assay are shown more often than the library holds them.

B1: TPR 5TU (parent)
chain: GGAUCUUCUCGAUCUAACAAAAAAGACAAAUCUGCCACAAAGCUUGAGAGCAUCUUCGGAUGCAGAGGCGGCAGCCUUCGGUGGCGCGAUAGCGCCAACGUUCUCAACUAUGACACGCAAAACGCGUGCUCCGUUGAAUGGAGUUUAUCAUG

Variants of: B1
Test: polymerase ribozyme fitness, log enrichment relative to wild type (log ratio); higher = more active; in vitro selection for triplet polymerase activity
Summary of the method: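 One round of in vitro selection, in triplicate, was applied to PCR-built, transcribed mutant libraries of each subunit of a heterodimeric triplet polymerase ribozyme. The steps were annealing with a biotinylated primer, partner subunit and triplets, incubation frozen at −7 °C, gel excision of extended constructs, streptavidin-bead capture and RT-PCR. Fitness is the logarithm, base 2, of genotype enrichment over wild-type enrichment from inverse-variance-weighted replicate averages of Illumina-sequenced inputs and outputs, keeping genotypes with ≥10 input reads and ≥1 read per output.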

Polymerase ribozyme fitness (log ratio), ≤ -4.2:
GGAUCUUCUCGAUCUAACAAAAAAGACAAUUCUGCCACAAAGCUUGAGAGCAUCUUCGGAUGCAGAGGCGGCAGCCUUCGGUGGCGCGAUAGCGCCAACGUUUUCAACUAUGACACGCAAAACGCGUGCUCCGUUGAAUAGAGUUUAUCAUG [A30U C103U G140A]
GGAUCUUCUCGAUCUAACAAAAAAGACAAUUCUGCCACAAAGCUUGAGAGCAUCUUCGGAUGCAGAGGCGGCAGCCUUCGGUGGCGCGAUAGCGCCAACGUUCUCAACUAUGACACGCAAAACGCGUGCUCUGUUGAAUGCAGUGUAUCUUG [A30U C132U G141C U145G A150U]
GGAUCUUCUCGAUCUAACAAAAAAGACAAUUCUGCCACAAAACUUGAGAGCAUCUUCGGAUGCAGAGGCGGCAGCCUUCGGUGGCGCGAUAGAGCCAACGUUCUCAACUACGACACGCAAAACGCGUGCUCCGUUGAAUGGAGUUUAUCAUG [A30U G42A C93A U111C]
GGAUCUUCUCGAUCUAACAAAAAAGACAAUUCUGCCACAAACCUUGAGAGCAUCUUCGGAUGCAGAGGCGGCAGCCUUCGGUGGCGCGAUAGCGCCAACGUUCUCAACUAUGACACGCAAAACGCGUGCUCCGUUGAAUGGAGUUUAUCAUG [A30U G42C]
GGAUCUUCUCGAUCUAACAAAAAAGACAAUUCUGCCACAAAGCUUGAGAGCAUCUUCGGAUGCAGAGGCGGCAGCCUUCGAUGGCGCGAUAGCGCAAACGUUUUCUACUAUGACACGCAAAACGCGUGCUCCGUUGAAUCGAGUUUAUCAUG [A30U G81A C96A C103U A106U G140C]
GGAUCUUCUCGAUCUAACAAAAAAGACAAUUCUGCCACAAAGCUUGAGAGCAUCUUCGGAUGCAGAGGCGGCAGCCUUCGGUGGCCCGAUAGCGCCAACGUUCUCAACUAUGACACGCAAAACGCGUGCUCCGUUGAAUGGAGUUUAUCAUG [A30U G86C]
GGAUCUUCUCGAUCUAACAAAAAAGACAAUUCUGCCACAAAGCUUGAGAGCAUCUUCGGAUGCAGAGGCGGCAGCCUUCGGUGGCUCGAUAGCGCCAACGUUCUCAACUAUGACACGUAAAACGCGUGCUCCGUUGAAUGGAGUUUAUCCUG [A30U G86U C118U A150C]
GGAUCUUCUCGAUCUAACAAAAAAGACAAUACUGCCACAAAGCAUGAGAGCAUCUUCGGAUGCAGAGGCGGCAGCCUUCGGUGGCGCGAUAGUGCCAACGUUCUCAACUAUGACACGCAAAACGCGUGCUCCGUUGAAUGGAGUUUAUCUUG [A30U U31A U44A C93U A150U]
GGAUCUUCUCGAUCUAACAAAAAAGACAAUUCGGCCACAAAACUUGAGAGCAUCUUCGGAUGCAGAGGCGGCAGCCUUCGGUGGCGCGAAAGCGCCAAAGUUCUCAACUAUGACACGCAAAACGCGUGCUCCGUAGAAUGGAGUUCAUCAUG [A30U U33G G42A U90A C99A U135A U146C]
GGAUCUUCUCGAUCUAACAAAAAAGACAAUUCUGCCACAAAGCUUGAGAGCACCUUCGGAUGCAGAGGCGGCGGCCCUCGGUGACGCGAUAGCGCCAACGUUCUCGACUAUGACACGCAAAACGCGUGCUCCGUUGAAUGGAGUUCAUCAUG [A30U U53C A73G U77C G84A A106G U146C]
GGAUCUUCUCGAUCUAACAAAAAAGACAAUUCUGCCACAAAGCUUGAGAGCAGGUUCGGAUGCAGAGGCGGCAGCCUUCGGUGGCGCGAUAGCGCCAACGUUCUCAACUAUGACACGCAAAACGCGUGCUCCGUUGAAUGGAGUUUAUCAUG [A30U U53G C54G]
GGAUCUUCUCGAUCUAACAAAAAAGACAAUUCUGCCACAAAGCUUGAGAGCAUCAUCGGAUGCAGAGGCGGCAGCCUUCGGUGGCGCGAUAGCGCCAACGUUAUCAACUAUGACACACAAAACGCGUGCUCCGUUGAAUGGAGUUUAUCAUG [A30U U55A C103A G117A]
GGAUCUUCUCGAUCUAACAAAAAAGACAAUUCUGCCACAAAGCUUGAGAGCAUCAACGGAUGCAGAGGCGGCAGCCUUCGGUGGCUCGAUAACGCCAACGUUCUCAACUAUGACACGCAAAACGCGUGCUCCGUUGAAUGGAGUUCAUCAUG [A30U U55A U56A G86U G92A U146C]
GGAUCUUCUCGAUCUAACAAAAAAGACAAUUCUGCCACAAAGCUUGAGAGCAUCGUCGGAUGCAGAGGCGGCAGCCUUCGGUGGCGCGAUAGCGCGAACGUUCUCAACUAUGACCCGCAAAACGCGUGCUCCGUUGAAUGGAGUUUAUCAUG [A30U U55G C96G A115C]
GGAUCUUCUCGAUCUAACAAAAAAGACAAUUCUGCCACAAAGCUUGAGAGCAUCUUCGGAAGCAGAGGCGGCAGCCUUCGGUGGCGCGAUAGCGCCAACGUUCUCAACUAUGACACGCAAAACGCGUGCUCCGUUGAAUGGAGUUUAUCAUA [A30U U61A G152A]
GGAUCUUCUCGAUCUAACAAAAAAGACAAAACUGCCACAAAGCUUGGGAGCAUCUUCGCAUGCAGAGGCGACAGCCUUCGGUGGCGCGAUAGCGCCAACGUUCUCAACUAUGACAAGCAAAACGCGUGCUCCGUUGAAAGGAGUUUAUCAUG [U31A A47G G59C G71A C116A U139A]
GGAUCUUCUCGAUCUAACAAAAAAGACAAAACUGCCACAAAGCUUGAGCGCAUCUUCGGAUGCAGAGGCGGCAGCCUUCGGUGGCGCGGUAGCGGCAACGUUCUCAACUAUGACACGCAAAACGCGUGCUCCGUUGAAUGGAGUUUAUCAUG [U31A A49C A89G C95G]
GGAUCUUCUCGAUCUAACAAAAAAGACAAAACUGCCACAAAGCUUGAGAGCAUCUUCGGGUGCAAAGACGGCAGCCUUCGGUGGCGCGAUAGCGCCAACGUUCUCAACUAUGACACGCAAAUCGCGUGCUCCGUUGAAUGGAGUUUAUCAUG [U31A A60G G65A G68A A122U]
GGAUCUUCUCGAUCUAACAAAAAAGACAAAAGGGCCACAAAAAUUGAGAGCAUCUUCGGAUGCAGCGGCGGCAGCCUUCGCUGGCGCGAUAGCGCAUACGUUCUCAACUACGACACGCAAAUCGCGUGCUCCGUCGAAUGGAGCUUAUCAUA [U31A C32G U33G G42A C43A A66C G81C C96A A97U U111C A122U U135C U144C G152A]
GGAUCUUCUCGAUCUAACAAAAAAGACAAAACUGCAACAAAGCUUGAGAGCGUCUUCGGAUGCAGAGGCGGCAGCAUUCGGUGGCGCGAUAGCGUCAACGUUAUCAACUAUGACACGCAAAACACGUGCUCCGUUGAAUUGAGUGUAUCAUG [U31A C36A A52G C76A C95U C103A G124A G140U U145G]
GGAUCUUCUCGAUCUAACAAAAAAGACAAAACUGCCACAAAGCUUGAGAGCAUAAUCGGAUGCAGAGGCGGCAGCCUUCGGUGGCGAGAUAGCGCCAACGUUCUCAACUAUGACACGCAAAACGCGUGCUCCGUUGAAUGGAGUUUAUCAUG [U31A C54A U55A C87A]
GGAUCUUCUCGAUCUAACAAAAAAGACAAAACUGCCACAAAGCUUGAGAGCAUCUUUGGAUGCAGAGGCGACAGUCUUCGGUGGCGCGAUCGGGCCAACGUUCUCAACUAUGACACGCAAAACGCGUGCUCCGUCGAAUGGAGUUUAUCAUG [U31A C57U G71A C75U A91C C93G U135C]
GGAUCUUCUCGAUCUAACAAAAAAGACAAAACUGCCACAAAGCUUGAGAGCAUCUUCGGAUGCAGAGGCGGCAGCCUUGGGUGGCGCGAUAGCGCCAACGUUCUCAACUGUGACACGCAAAACGCGUGCUCCGUUGAAUGGAGUUUAUCAUG [U31A C79G A110G]
GGAUCUUCUCGAUCUAACAAAAAAGACAAAACUGCCACAAAGCUUGAGAGCAUCUUCGGAUGCAGAGGCGGCAGCCUUUGGUGGCGCGAUAGCGCCAACGUUCUUAACUAUGACACGCGAAACGCGUGCUCCGUUGCAUGGAGUUUAUCAUG [U31A C79U C105U A119G A137C]
GGAUCUUCUCGAUCUAACAAAAAAGACAAAACUGCCACAAAACUUGAGAGCAUCUUCGGAUGCAGAGGUGGCAGCCUUCGGUGGAGCGAUAGCGCCAACGUUCUCAACUAUGACACGCAAAACGCGUGCUCCGUUGAAUGGGGUUUAUCAUG [U31A G42A C69U C85A A142G]
GGAUCUUCUCGAUCUAACAAAAAAGACAAAACUGCCACAAAGCUUUAGAGCAUCUUCGGAUGCAGAGGCGGCUGCGUUCGGUGGCGCGAUAGCGCAAACGUUCUCAACUAUGACACGCAAAACGCGUGCUCCGUUGAAUGGAGUUUAUCAUG [U31A G46U A73U C76G C96A]
GGAUCUUCUCGAUCUAACAAAAAAGACAAAACUGCCACAAAGCUUGAGAGCAUCUUCGAAUGCAGAGGCGGCUGCCUCGGGUGGCGUGAUAGUGCCAACGUUCUCAACUAUGACACGCAAAACGCGUGCUCCGUUGAAUGGAGUGUAUCAUG [U31A G59A A73U U78C C79G C87U C93U U145G]
GGAUCUUCUCGAUCUAACAAAAAAGACAAAACUGCCACAAAGCUUGAGAGCAUCUUCGGAUGCAAAGGCGGCAGCCUUCGGUGGCGCGAUAGUGCCAACGUGCUCAACUAUGACACGCAAAACGCGUGCUCCGUUGAAUGGAGUUUAUCAUG [U31A G65A C93U U102G]
GGAUCUUCUCGAUCUAACAAAAAAGACAAAACUGCCACAAAGCUUGAGAGCAUCUUCGGAUGCAGAGGCGGCAGCCUUCGCUGGCGCGAUAGAGCGAACGUUCUCAACUAUGACACGUAAAACGCGCGCUCCGUUGAAUGGAGUCUAUCAUG [U31A G81C C93A C96G C118U U127C U145C]
GGAUCUUCUCGAUCUAACAAAAAAGACAAAACUGCCACAAAGCUUGAGAGCAGCUUCGGAUGCAGAGGCGGCAGCCUUCGGUGGCGCGAUAGCGCCAAAGUUCUCAACUAUGACACGCAAAACGCGUGCUCCGUUGAAUGGAGUUUAUCAUG [U31A U53G C99A]
GGAUCUUCUCGAUCUAACAAAAAAGACAAAACUGCCACAAAGCUUGAGAGCAUCUACGGAUGCAGAGGCAGCAGCCUUCGGUGGCGCGAUAGCGCCAACGUUCUCAACUCUGACACGCAAAACGCGUGCUCCGUUGAAUGGAGUUUAUCAAG [U31A U56A G70A A110C U151A]
GGAUCUUCUCGAUCUAACAAAAAAGACAAACCUGCCUCAAAGCUUGAGAGCAUCUUCGGAUGCAGAGGCGGCAGCCUUCGGUGGCGCGAUAGCGCCAACGUUCUCUACUAUGACACGCAAAUCGCGUGCUCCGUUGAAUGGAGUUUAUCAUG [U31C A37U A106U A122U]
GGAUCUUCUCGAUCUAACAAAAAAGACAAACCUGCCACACAGCUUGAGAGCAUCUUCGGAUGCAGAGGCGGCAGCCUUCGUUGGCGCGAUAGCGCCAACGUUCUCAACUAUGACACGCAAAACGCGUGGUCCGUAGAAUGGCGUUUAUCAUG [U31C A40C G81U C129G U135A A142C]
GGAUCUUCUCGAUCUAACAAAAAAGACAAACCUGCCACAAAGCUUGAGCGCAUCUUCGGAUGCAGAGGCGGCAGCCUUCGGUGGAGCGAUAGCGCCAACGGUCUCAACUAUGACACGCAAAACGCGUGCUCCGUUAAAUUGAGUUUAUCAUG [U31C A49C C85A U101G G136A G140U]
GGAUCUUCUCGAUCUAACAAAAAAGACAAACCUGCCACAAAGCUUGAGGGCAUCUUCGGAUGCAGAGGCGGCAGCCUUCGGUGGCGCAAUAGCGCCAACGUUCUCAACUAUGACACGCAAAACGCGUGCUCCGUUGAAUGGAGUUUAUCAUG [U31C A49G G88A]
GGAUCUUCUCGAUCUAACAAAAAAGACAAACCUGCCACAAAGCUUGAGAGCCUCUUCGGAUGCAGAGGCGGCAGCCUUCGGUUGCGGGAUAGCGCCAACGUUCUCAACUAUGACACGCAAAACGCGUGCUCCGUUAAAUGGCGUUUAUCAUG [U31C A52C G83U C87G G136A A142C]
GGAUCUUCUCGAUCUAACAAAAAAGACAAACAUGCCACAAGGCUUGAGAGCAUCGUCGGAUGCAGAGGCGGCAGGCUCCGGUGGCGCGAUAGCGACAACGUUCUCAACUAUGACACGCAAAACGCCUGCUCCGUUGAAUGGAGUUUAUCAUG [U31C C32A A41G U55G C75G U78C C95A G126C]
GGAUCUUCUCGAUCUAACAAAAAAGACAAACCUGCCAUAAAGCUUGUGAGCAUCUUCGGAUGCAGAGGCGGCAGCCUUCGGUGGCGCGAUAGGGCCAACGUUCUCAACUAUGACACGCAAAACGCGUGCUCCGUUGAAUGGACUUCAUCAUG [U31C C38U A47U C93G G143C U146C]
